# In patent US12145987B2, “Method for depleting cytotoxic T cells using an anti-LAG-3 antibody composition” (Daiichi Sankyo Company, Limited, priority 2017, dated 2024):
# T1: human LAG-3 expressed on 293T-lacZ cells (Homo sapiens, UniProt P18627)
# T1 construct: An expression plasmid of the full-length human LAG-3 was introduced into the 293T cells stably expressing β-galactosidase; expressed in transfected cells; host or cells: 293T-lacZ cells (293T stably expressing β-galactosidase), transient transfection
# T1 sequence (P18627 23-525): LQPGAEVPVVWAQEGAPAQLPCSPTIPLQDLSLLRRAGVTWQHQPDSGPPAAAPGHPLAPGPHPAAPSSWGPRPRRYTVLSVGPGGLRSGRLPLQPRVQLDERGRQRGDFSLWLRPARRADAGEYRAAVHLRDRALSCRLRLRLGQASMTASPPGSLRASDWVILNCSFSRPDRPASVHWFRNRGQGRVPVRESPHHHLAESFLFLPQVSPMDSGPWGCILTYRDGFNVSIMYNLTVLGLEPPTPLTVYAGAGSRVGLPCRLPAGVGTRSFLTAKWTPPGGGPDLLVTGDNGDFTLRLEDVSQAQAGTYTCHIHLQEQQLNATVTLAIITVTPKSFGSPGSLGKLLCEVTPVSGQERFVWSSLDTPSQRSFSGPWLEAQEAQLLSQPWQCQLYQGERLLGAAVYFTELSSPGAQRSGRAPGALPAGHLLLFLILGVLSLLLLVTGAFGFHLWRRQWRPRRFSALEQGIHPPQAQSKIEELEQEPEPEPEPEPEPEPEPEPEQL
# What was measured:
# [1] = test system: CD28 negative T cells; assay: CD28 negative T cell number after CD3/CD28 stimulation of human PBMCs for 4 days, flow cytometry; type: cell-based
# Description: PBMCs were separated from human peripheral blood by Ficoll centrifugation and added to a 96-well U-bottom microplate in an amount of 4×10^5 cells/well. Human IL-2 (PeproTech, Inc., final concentration: 100 ng/mL) and Dynabeads Human T-Activator CD3/CD28 (Life Technologies Corp., 4×105 beads/well) were added thereto, and T cells were activated by culture for 4 days. The obtained cells were recovered, suspended in a FACS buffer (PBS, 0.1% BSA, and 0.1% sodium azide), and then reacted with Human BD Fc Block (Becton, Dickinson and Company) at room temperature for 10 minutes. Subsequently, the cell surface was stained by reaction at 4° C. for 30 minutes with fluorescently labeled antibodies diluted with a FACS buffer containing a LIVE/DEAD Fixable Dead Cell Stain Kit-near-IR fluorescent reactive dye (manufactured by Invitrogen Corp.), followed by washing with a FACS buffer. The fluorescently labeled antibodies used were various combinations of a FITC-labeled anti-human CD8 antibody, a PerCP-Cy5.5-labeled anti-human CD3 antibody, an APC-labeled anti-human CD28 antibody, and a Pacific Blue-labeled anti-human CD57 antibody (all from Becton, Dickinson and Company), a PE-labeled anti-human CD28 antibody (BioLegend, Inc.), and an anti-human LAG-3 antibody and an isotype control antibody labeled using a PE labeling kit (Dojindo Laboratories). […] The data was analyzed using FlowJo (manufactured by Tree Star Inc). After removal of the LIVE/DEAD Fixable Dead Cell Stain Kit-near-IR fluorescent reactive dye-positive dead cells by gating, only the living cells were analyzed by further gating CD3 positive and CD8 positive CD8 T cells.
# The effect of the humanized anti-human LAG-3 antibody hLA212_H4/L2, the calcineurin inhibitor tacrolimus, and the corticosteroid dexamethasone on CD28 negative T cells and CD57 positive T cells was investigated in the assay system of Example 13. […] Out of the living cells, a CD3 positive and CD8 negative fraction and a CD3 positive and CD8 positive fraction were analyzed as CD4 T cells and CD8 T cells, respectively.
# [2] = biological target: T1, human LAG-3 expressed on 293T-lacZ cells; assay: Binding activity to 293T-lacZ cells expressing human LAG-3 by flow cytometry; conditions: mean fluorescence intensity
# Description: (§1) The expression plasmid pcDNA3.1-hLAG-3 of human LAG-3 was introduced into the 293T-lacZ cells (described in Example 1)-5-1), using Lipofectamine 2000 (manufactured by Invitrogen Corp.), and the cells were cultured for 1 day and thereafter used for flow cytometry. The flow cytometry was performed according to the method described in Example 1)-4, except that an Anti-Human IgG PE conjugate (manufactured by Jackson ImmunoResearch Laboratories, Inc.) diluted 200-fold with a FACS buffer was used as the secondary antibody.
# as §1, with “human LAG-3-expression” for “expression”, “pcDNA3.1/hLAG-3” for “pcDNA3.1-hLAG-3 of human LAG-3”, “but” for “except that”
# The binding of the humanized anti-human LAG-3 antibody hLA212_H4/L2 to human LAG-3-expressing 293T-lacZ cells was investigated by flow cytometry according to the method described in Example 7)-2.
Molecule,"number of CD28 negative CD8 T cells ([1]; hLA212_H4/L2 10, 1, 0.1 μg/mL (effect concentration dependent), tacrolimus 10 nM, dexamethasone 1 μM, 4 days, two donors)","number of CD28 negative CD4 T cells ([1]; hLA212_H4/L2 10, 1, 0.1 μg/mL, tacrolimus 10 nM, dexamethasone 1 μM, 4 days, two donors)",binding activity to 293T-lacZ cells expressing human LAG-3 [2],"number of CD28 negative T cells ([1]; antibodies not in a low fucose form, more weakly than hLA212_H4/L2, data not shown)"
"hLA212_H4/L2: defucosylated humanized antibody; heavy chain positions 20 to 470 of SEQ ID No: 30, light chain positions 21 to 234 of SEQ ID No: 34 (antibody) heavy: EVQLVESGGGLVQPGGSLRLSCAASGFTYRSYVMAWVRQAPGKGLEWVASISTGGGNTYYRDSVKGRFTISRDNAKNTLYLQMDSLRAEDTAVYYCAEDMSNSGYGLFDYWGQGTLVTVSSASTKGPSVFPLAPSSKSTSGGTAALGCLVKDYFPEPVTVSWNSGALTSGVHTFPAVLQSSGLYSLSSVVTVPSSSLGTQTYICNVNHKPSNTKVDKRV[left out - human IgG1 Fc] light: DIQMTQSPSSLSASVGDRVTITCKAGQNVDNNIAWYQQKPGQSPKLLIYYASNRNTGVPSRFSGSGYGTDFTLTISSLQPEDFATYYCQRISNSPYTFGQGTKVEIKRTVAAPSVFIFPPSDEQLKSGTASVVCLLNNFYPREAKVQWKVDNALQSGNSQESVTEQDSKDSTYSLSSTLTLSKADYEKHKVYACEVTHQGLSSPVTKSFNRGEC",evidently reduced,"reduced the number of CD28 negative CD4 T cells, albeit not as remarkably as observed in the CD28 negative CD8 T cells",concentration-dependent binding,–
"hLA212_H3/L2: humanized antibody; heavy chain positions 20 to 470 of SEQ ID No: 30, light chain positions 21 to 234 of SEQ ID No: 34 (antibody) heavy: EVQLVESGGGLVQPGGSLRLSCAASGFTYRSYVMAWVRQAPGKGLEWVASISTGGGNTYYRDSVKGRFTISRDNAKNTLYLQMDSLRAEDTAVYYCAEDMSNSGYGLFDYWGQGTLVTVSSASTKGPSVFPLAPSSKSTSGGTAALGCLVKDYFPEPVTVSWNSGALTSGVHTFPAVLQSSGLYSLSSVVTVPSSSLGTQTYICNVNHKPSNTKVDKRV[left out - human IgG1 Fc] light: DIQMTQSPSSLSASVGDRVTITCKAGQNVDNNIAWYQQKPGQSPKLLIYYASNRNTGVPSRFSGSGYGTDFTLTISSLQPEDFATYYCQRISNSPYTFGQGTKVEIKRTVAAPSVFIFPPSDEQLKSGTASVVCLLNNFYPREAKVQWKVDNALQSGNSQESVTEQDSKDSTYSLSSTLTLSKADYEKHKVYACEVTHQGLSSPVTKSFNRGEC",–,–,"concentration-dependent binding activity to the 293T-lacZ cells expressing human LAG-3, comparable to the human chimeric anti-LAG-3 antibody cLA212",tendency to reduce
